# Laboratory results: PubChem BioAssay (NCATS)
# Inconclusive means that the source gave no clear call. Such entries were picked first, then a sample of the others. For part of these data: A potency beside an inconclusive call is a rough fit, not a confirmed value. Activity calls are given as the source filed them. Unless noted, the call rests on the fitted dose curve; in most records, active means well fitted curve in the direction sought with a large enough effect; inconclusive means small, poorly fitted or top-dose-only effect, or another doubt; inactive means no such curve, though single readings can be large; an effect the other way counts as inactive or inconclusive.
# Key:
# [1] = qHTS of pediatric cancer cell lines to identify multiple opportunities for drug repurposing: Primary screen for DAOY cells (AID 1347090); conditions: DAOY medulloblastoma viability, CellTiter-Glo luminescence, 48 h; activity change, negative = cytotoxic: at 46 µM (top of the series); further: potency means the concentration at half of the fitted maximal effect; nearly all actives have a fitted effect of over 55% in size
# Outline: (§1)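 Viability measured as metabolically active cells via CellTiter-Glo luminescence following 48 hours of compound exposure, 11-point dilutions in confirmatory testing. 500-1,000 cells/well plated 5 hours before dosing; controls were DMSO and 2.3 µM bortezomib.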
# [2] = qHTS of pediatric cancer cell lines to identify multiple opportunities for drug repurposing: Primary screen for SJ-GBM2 cells (AID 1347091); further: potency means the concentration at half of the fitted maximal effect
# Outline: as §1
# [3] = qHTS of pediatric cancer cell lines to identify multiple opportunities for drug repurposing: Primary screen for A673 cells (AID 1347092); conditions: A673 Ewing sarcoma viability, CellTiter-Glo ATP luminescence, 48 h; activity change, negative = cytotoxic: at 46 µM (top of the series); further: potency means the concentration at half of the fitted maximal effect; nearly all actives have a fitted effect of over 45% in size
# Outline: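 Titration-based qHTS on A673 cells: MIPE compounds spanned 11 points (0.78 nM to 46 µM final), NPC compounds 8 points (0.59 nM to 46 µM final). Viability after 48 h was measured by ATP luminescence.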
# [4] = qHTS of pediatric cancer cell lines to identify multiple opportunities for drug repurposing: Primary screen for SK-N-MC cells (AID 1347093); conditions: SK-N-MC viability, CellTiter-Glo luminescence, 48 h; activity change, negative = cytotoxic: at 46 µM (top of the series); further: potency means the concentration at half of the fitted maximal effect
# Outline: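 Metabolically active cells were quantified by ATP-dependent luminescence (CellTiter-Glo, 15 min at room temperature) following 48 h treatment. Cells had been plated at 500-1,000 per well and settled for 5 h beforehand.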
# [5] = qHTS of pediatric cancer cell lines to identify multiple opportunities for drug repurposing: Primary screen for NB-EBc1 cells (AID 1347095); further: potency means the concentration at half of the fitted maximal effect
# Outline: (§2)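 Phenotypic viability qHTS, 48 h compound exposure, CellTiter-Glo luminescence read-out; multi-concentration dosing so that potency and efficacy derive directly from the primary screen's curves.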
# [6] = qHTS of pediatric cancer cell lines to identify multiple opportunities for drug repurposing: Primary screen for NB1643 cells (AID 1347099); further: potency means the concentration at half of the fitted maximal effect; nearly all actives have a fitted effect of over 50% in size
# Outline: as §2
# [7] = qHTS of pediatric cancer cell lines to identify multiple opportunities for drug repurposing: Primary screen for LAN-5 cells (AID 1347100); further: potency means the concentration at half of the fitted maximal effect
# Outline: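 Viability after 48 h compound treatment at 37C, 500-1,000 cells/well, read as ATP luminescence with CellTiter-Glo. Primary screens used 11-point (MIPE, 0.78 nM-46 µM) or 8-point (NPC, 0.59 nM-46 µM) final concentrations; follow-up screens used 11-point dilutions.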
# [8] = qHTS of pediatric cancer cell lines to identify multiple opportunities for drug repurposing: Primary screen for OHS-50 cells (AID 1347103); further: potency means the concentration at half of the fitted maximal effect; nearly all actives have a fitted effect of over 40% in size
# Outline: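 Cells (500-1,000/well) rested 5 h, then received compounds for 48 h; metabolically active cells were measured by CellTiter-Glo luminescence. Final concentrations spanned up to 46 µM (MIPE, 11-point) or 0.59 nM-46 µM (NPC, 8-point) in primary screens, 11-point in follow-ups.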
# [9] = qHTS of pediatric cancer cell lines to identify multiple opportunities for drug repurposing: Primary screen for MG 63 (6-TG R) cells (AID 1347105); conditions: MG 63 (6-TG R) viability, CellTiter-Glo, 48 h; activity change, negative = cytotoxic: at 46 µM (top of the series) unless noted; further: potency means the concentration at half of the fitted maximal effect; nearly all actives have a fitted effect of over 50% in size
# Outline: as §2
# [10] = Primary qHTS for small molecule stabilizers of the endoplasmic reticulum resident proteome: Secreted ER Calcium Modulated Protein (SERCaMP) assay (AID 1508630); conditions: SH-SY5Y GLuc-SERCaMP (Gaussia luciferase released on ER calcium loss) secretion, thapsigargin, luminescence; series mostly up to 38.4 µM
# Outline: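 The SH-SY5Y reporter protocol was run at 3 concentrations up to 38.3 uM (primary) or 11 concentrations (follow-up): 16 h compound, 100 nM thapsigargin for 4 h, then extracellular luciferase luminescence.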
# [11] = A High-Content qHTS Against Drug Library for the Identification of Small Molecules that Inhibit DYT1 Early Onset Primary Dystonia-Associated Cell Pathology (AID 1645839; calls by dose curve; further: potency means the concentration at half of the fitted maximal effect)
# Outline: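 Cells were seeded and left for 24 h, then dosed with compound alongside tetracycline induction of mutant EGFP-TorsinA. They were incubated for 48 h, fixed in 4% paraformaldehyde, permeabilized and imaged for mislocalization (%pathology) and cell count.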
# [12] = Primary qHTS for inhibitors of nuclear receptor binding SET domain protein 2 (NSD2) in an isogenic RCH-ACV NSD2 p.E1099K mutant (9B) (AID 1645876); further: potency means the concentration at half of the fitted maximal effect; nearly all actives have a fitted effect of over 70% in size
# HEK293 = assay: Cytotoxic Profiling of Annotated Libraries Using Quantitative High-Throughput Screening (AID 1296008); conditions: Five cell lines viability, CellTiter-Glo ATP luminescence, 48-72 h; max response: hits give low values; further: potency means the concentration at half of the fitted maximal effect; nearly all actives have a fitted effect of over 60% in size
# Outline: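 Cells exposed to compounds for 48 or 72 hr at 37 degrees Celsius. Viability read as ATP-coupled luminescence with CellTiter-Glo after 10 min at room temperature.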
# UISO = assay: qHTS assay to identify novel small-molecules to repurpose for Merkel cell carcinoma treatment (AID 1296009); conditions: MCC and control cell lines, CellTiter-Glo viability, 72 h; series mostly up to 46 µM; further: nearly all actives have a fitted effect of over 60% in size
# Outline: (§3)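 CellTiter-Glo luminescence after 72 hr compound exposure at 37 degree celsius gave cell viability. Libraries NPC and MIPE were run as 8- and 11-point dose responses; RLUs normalized to DMSO (negative) and no-cell (cytotoxicity) controls.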
# WaGa = assay: as above; conditions: MCC and control cell lines, CellTiter-Glo viability, 72 h; series mostly up to 46 µM
# Outline: as §3
# Tags describe the fitted curve by direction and shape.
structure (smiles),measurement,setting,value
C/C=C(/C(=C/C)c1ccc(OC(C)=O)cc1)c1ccc(OC(C)=O)cc1,Potency,[1],"inconclusive: 26.6 µM [cytotoxic, single point]"
same,Potency,[2],"inconclusive: 29.9 µM [cytotoxic, single point]"
same,Potency,[3],"inconclusive: 26.6 µM [cytotoxic, single point]"
same,Potency,[4],active: 5.31 µM
same,Potency,[5],"inconclusive: 18.8 µM [cytotoxic, single point]"
same,Potency,[6],"inconclusive: 16.8 µM [cytotoxic, single point]"
same,Potency,[7],"inconclusive: 29.9 µM [cytotoxic, single point]"
same,Potency,[8],"inconclusive: 38.9 µM [cytotoxic, single point]"
same,Potency,[9],"inconclusive: 10.6 µM [cytotoxic, partial curve, poor fit]"
same,Potency,[10],inactive
same,Potency,[11],active: 8.91 µM
same,Potency,[12],active: 5.31 µM
same,Potency,HEK293,"inconclusive: 33.5 µM [inhibitor, single point]"
same,Potency,UISO,inactive
same,Potency,WaGa,inactive
